PMC4336329 (PLoS ONE, 2015)
About 14,000 (4.5%) of roughly 310,000 compounds showed an effect of 50% or more. Effects have a minus sign here. This is one part of the list.

Target: human ether-à-go-go-related gene (hERG) potassium channel (human, UniProt Q12809)
Experiment: primary screen, population patch clamp on CHO cells stably expressing hERG
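Note: peak tail current of the secondary pulse compared with the same well before compound.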

Sequence of human ether-à-go-go-related gene (hERG) potassium channel (Q12809 whole entry, looked up): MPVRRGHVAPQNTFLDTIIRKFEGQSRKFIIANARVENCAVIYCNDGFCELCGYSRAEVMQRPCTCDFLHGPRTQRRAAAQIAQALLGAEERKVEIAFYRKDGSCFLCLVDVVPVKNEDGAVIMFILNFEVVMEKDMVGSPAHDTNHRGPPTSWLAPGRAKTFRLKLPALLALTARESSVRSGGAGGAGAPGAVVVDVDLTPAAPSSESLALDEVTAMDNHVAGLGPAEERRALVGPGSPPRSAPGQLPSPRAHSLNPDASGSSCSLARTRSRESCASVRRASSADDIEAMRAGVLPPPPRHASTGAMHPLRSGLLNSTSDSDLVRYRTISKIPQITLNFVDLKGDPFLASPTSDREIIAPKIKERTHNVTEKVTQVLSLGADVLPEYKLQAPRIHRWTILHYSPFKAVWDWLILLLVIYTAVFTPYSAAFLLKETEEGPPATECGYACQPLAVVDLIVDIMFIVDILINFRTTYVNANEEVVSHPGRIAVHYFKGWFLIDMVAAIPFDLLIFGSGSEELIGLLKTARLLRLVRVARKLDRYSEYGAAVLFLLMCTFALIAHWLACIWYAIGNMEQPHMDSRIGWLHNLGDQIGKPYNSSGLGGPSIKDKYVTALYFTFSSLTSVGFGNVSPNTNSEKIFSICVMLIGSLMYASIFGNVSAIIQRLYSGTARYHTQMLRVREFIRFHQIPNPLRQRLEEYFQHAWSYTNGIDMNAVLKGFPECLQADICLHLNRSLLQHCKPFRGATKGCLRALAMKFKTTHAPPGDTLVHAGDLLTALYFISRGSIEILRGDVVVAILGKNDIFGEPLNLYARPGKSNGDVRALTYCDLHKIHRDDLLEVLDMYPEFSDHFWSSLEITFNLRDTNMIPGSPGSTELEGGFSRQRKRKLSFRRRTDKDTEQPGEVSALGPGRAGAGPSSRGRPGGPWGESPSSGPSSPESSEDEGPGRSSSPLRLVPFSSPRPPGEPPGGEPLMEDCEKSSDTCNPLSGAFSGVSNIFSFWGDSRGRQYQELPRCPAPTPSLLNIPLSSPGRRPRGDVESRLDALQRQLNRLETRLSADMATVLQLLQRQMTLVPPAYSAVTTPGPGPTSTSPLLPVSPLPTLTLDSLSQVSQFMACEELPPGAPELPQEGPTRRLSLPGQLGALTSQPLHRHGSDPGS

Structure (SMILES) | hERG current change (%, negative = inhibition) at 10uM
CC(=O)c1cccc(NC(=O)CCS(=O)(=O)c2cc3c(cc2C)NC(=O)CO3)c1 | 1.62%
CCN(C(=O)CCN1C(=O)/C(=C/c2ccccc2)SC1=S)C1CCS(=O)(=O)C1 (stereo not drawn) | -13.3%
CCOC(=O)C(=CNc1ccc(O)c(C(=O)OC)c1)C(=O)OCC | 6.07%
C=CCN1/C(=C(\C#N)C2=NS(=O)(=O)c3ccccc32)N(C)c2ccccc21 | -23.2%
COc1ccc(CCNC(=O)CN2C(=O)C(=O)N(C3CCCC3)C2=O)cc1OC | 15.1%
CCC(=O)Nc1ccc2c(c1)N(C(C)=O)c1ccccc1CC2 | 16.1%
C[C@H](NC(=O)C1CC(=O)N(c2ccc3c(c2)OCCO3)C1)C(=O)N1CCCCC1 (stereo partly drawn) | 14%
CC(C)(C)c1nc(NCC2CCCO2)c2nnn(Cc3ccccc3)c2n1 (stereo not drawn) | 14.5%
CN(c1ccc(OCC(=O)OCC(=O)Nc2ccc(Br)cc2)cc1)S(=O)(=O)c1cccs1 | -0.388%
CN1CCN(C(=S)NC(=O)c2ccccc2Cl)CC1 | 17.9%
CSc1cccc(N2CC(C(=O)N(CC(C)C)c3c(N)n(Cc4ccccc4)c(=O)[nH]c3=O)CC2=O)c1 (stereo not drawn) | -12.6%
CCCSc1nsc(NC(=O)CC)n1 | -30.5%
CCOC(=O)COc1c(-c2ccc(OC)cc2)oc2ccccc2c1=O | 3.73%
Cc1ccccc1N(CC(=O)NC(C)(C)C)C(=O)CCC(=O)Nc1nccs1 | 1.09%
Cc1ccccc1OCC(=O)Nc1ccc([N+](=O)[O-])cc1 | 4.97%
Cc1cc(C)nc(NC2=NCC(=O)N2CCc2c[nH]c3ccccc23)n1 | -2.13%
O=C(Nc1cc(NC(=O)c2ccccc2F)ccc1Cl)c1ccccc1 | 15.4%
CC(C)C(C(=O)O)N1C(=O)/C(=C/c2cccn2C)SC1=S (stereo not drawn) | -0.129%
O=C(NCC1CCCN(C(=O)c2cscn2)C1)c1ccc(-c2ccccc2)cc1 (stereo not drawn) | -15.1%
CC1CCCC(C)N1CCNC(=O)C1CCN(S(=O)(=O)N2CCCCC2)CC1 (stereo not drawn) | -12.2%
Cn1c(C(=O)O)cnc1Sc1ncc(C(F)(F)F)cc1Cl | 18.9%

Structure (SMILES) | hERG current change (%, negative = inhibition) at 10uM
Cc1ccccc1OCCC(=O)OCC(=O)N1c2ccccc2NC(=O)C1(C)C | -3.06%
C[C@@H]1O[C@@H](O[C@@H]2C(=O)c3c(O)cc(O)cc3O[C@H]2c2ccc(O)c(O)c2)[C@H](O)[C@H](O)[C@H]1O | 16.3%
Cc1cccc(CN2CCCC(C(=O)N3CCc4ccccc4C3)C2)c1.O=C(O)C(=O)O (stereo not drawn) | -51.3%
CSC(=S)NCc1cccnc1 | 18.5%
Cn1c(=O)oc2cc(S(=O)(=O)N3CCC4(CC3)OCCO4)ccc21 | 7.55%
CCc1nc2nc(C)c(NS(=O)(=O)c3ccc(F)cc3)c(=O)n2[nH]1 | 22.9%
CCn1c(SCC(=O)Nc2ccc3c(c2)OCCO3)nc2c(c1=O)SC(C)C2 (stereo not drawn) | -4.64%
CC(=O)Nn1c(-c2ccccc2)cc2ccccc21 | 3.97%
COc1ccc(C(=O)C23CC4CC(C2)CC(C(=O)c2ccc(OC)cc2)(C4)C3)cc1 | -17.9%
CC(=O)Nc1ccc(-c2csc(NC(=O)C3CCN(S(=O)(=O)c4cccs4)CC3)n2)cc1 | -2.9%
COC(=O)c1cc(S(=O)(=O)Nc2cccc(-c3cnco3)c2)oc1C | 9.51%
CCOc1cccc(=O)c2c(C)n(Cc3ccco3)c(C)c12 | -11.5%
CN1CCN(c2ccccc2NC(=O)COc2ccc(C3CCCCC3)cc2)CC1 | 16.8%
COc1cccc(NC(=O)C2CCC(CNS(=O)(=O)c3cccc4cccnc34)CC2)c1 (stereo not drawn) | 9.58%
CC(=O)Nc1ccc2nc(-c3ccncc3)[nH]c2c1 | 13.6%
O=C(NCc1ccccn1)c1ccc(/C=N/O)nc1 | 7.51%
CCOc1ccc(CN2CCN(Cc3cccc4nonc34)CC2CCO)cc1 (stereo not drawn) | -77.1%
CCN(CC)CCn1c(SCC(=O)NCCC2=CCCCC2)nc2c(sc3ccccc32)c1=O | 35.5%
Cc1ccc(-n2c([S-])c(C(=O)Nc3ccc(OC(F)F)cc3)[n+]3ccc(C(=O)NCCO)cc23)cc1C | 23.5%
COC(=O)C1=C(c2ccc(OC)c(OC)c2)C[C@@H]2CC[C@H]1N2C(=O)N1CCc2cc(OC)c(OC)cc2C1 | -0.359%
CC(=O)Nc1ccc(S(=O)(=O)NNC(=O)c2cc3c4ccccc4n(C)c3s2)cc1 | 8.01%
